# Measurements published in the supplement of paper PMC8728848.
# The list shows a part of the results.
# B1: Clec18C (Homo sapiens) (protein)
# chain: MLHPETSPGRGHLLAVLLALLGTAWAEVWPPQLQEQAPMAGALNRKESFLLLSLHNRLRSWVQPPAADMRRLDWSDSLAQLAQARAALCGTPTPSLASGLWRTLQVGWNMQLLPAGLVSFVEVVSLWFAEGQRYSHAAGECARNATCTHYTQLVWATSSQLGCGRHLCSAGQAAIEAFVCAYSPRGNWEVNGKTIVPYKKGAWCSLCTASVSGCFKAWDHAGGLCEVPRNPCRMSCQNHGRLNISTCHCHCPPGYTGRYCQVRCSLQCVHGRLREEECSCVCDIGYGGAQCATKVHFPFHTCDLRIDGDCFMVSSEADTYYRARMKCQRKGGVLAQIKSQKVQDILAFYLGRLETTNEVIDSDFETRNFWIGLTYKTAKDSFRWATGEHQAFTSFAFGQPDNHGFGNCVELQASAAFNWNNQRCKTRNRYICQFAQEHISRWGPGS
# Key:
# Assay in all cases: glycan array binding signal (z-score within array); higher = stronger binding
# Settings in all cases: glycan notation: IUPAC condensed, linker removed
# [1] = target: GlcNAc(b1-3)Gal(b1-4)Glc
# Method in brief: (§1)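 Columns mapping to the same glycan were averaged after glycan names were converted to IUPAC-condensed notation. The data come from 3228 arrays in the Consortium for Functional Glycomics database, limited to those with an available protein sequence. Binding is reported as a within-array Z-score averaged across arrays of one protein sequence and across linkers.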
# [2] = target: GlcNAc(b1-3)Gal(b1-4)GlcNAc
# Method in brief: as §1
# [3] = target: GlcNAc(b1-3)Gal(b1-4)GlcNAc(b1-2)Man(a1-3)[GlcNAc(b1-3)Gal(b1-4)GlcNAc(b1-2)Man(a1-6)]Man(b1-4)GlcNAc(b1-4)GlcNAc
# Method in brief: as §1
# [4] = target: GlcNAc(b1-3)Gal(b1-4)GlcNAc(b1-2)Man(a1-3)[GlcNAc(b1-3)Gal(b1-4)GlcNAc(b1-2)Man(a1-6)]Man(b1-4)GlcNAc(b1-4)[Fuc(a1-6)]GlcNAc
# Method in brief: as §1
# [5] = target: GlcNAc(b1-3)Gal(b1-4)GlcNAc(b1-2)[GlcNAc(b1-3)Gal(b1-4)GlcNAc(b1-6)]Man(a1-6)[GlcNAc(b1-3)Gal(b1-4)GlcNAc(b1-2)Man(a1-3)]Man(b1-4)GlcNAc(b1-4)GlcNAc
# Method in brief: as §1
# [6] = target: GlcNAc(b1-3)Gal(b1-4)GlcNAc(b1-3)Gal(b1-4)GlcNAc
# Method in brief: as §1
# [7] = target: GlcNAc(b1-3)Gal(b1-4)GlcNAc(b1-3)Gal(b1-4)GlcNAc(b1-2)Man(a1-3)[GlcNAc(b1-3)Gal(b1-4)GlcNAc(b1-3)Gal(b1-4)GlcNAc(b1-2)Man(a1-6)]Man(b1-4)GlcNAc(b1-4)GlcNAc
# Method in brief: as §1
# [8] = target: GlcNAc(b1-3)Gal(b1-4)GlcNAc(b1-3)Gal(b1-4)GlcNAc(b1-2)Man(a1-3)[GlcNAc(b1-3)Gal(b1-4)GlcNAc(b1-3)Gal(b1-4)GlcNAc(b1-2)Man(a1-6)]Man(b1-4)GlcNAc(b1-4)[Fuc(a1-6)]GlcNAc
# Method in brief: as §1
# [9] = target: GlcNAc(b1-3)Gal(b1-4)GlcNAc(b1-3)Gal(b1-4)GlcNAc(b1-2)[GlcNAc(b1-3)Gal(b1-4)GlcNAc(b1-3)Gal(b1-4)GlcNAc(b1-6)]Man(a1-6)[GlcNAc(b1-3)Gal(b1-4)GlcNAc(b1-3)Gal(b1-4)GlcNAc(b1-2)Man(a1-3)]Man(b1-4)GlcNAc(b1-4)[Fuc(a1-6)]GlcNAc
# Method in brief: as §1
# [10] = target: GlcNAc(b1-3)Gal(b1-4)GlcNAc(b1-3)Gal(b1-4)GlcNAc(b1-3)Gal(b1-4)GlcNAc(b1-2)Man(a1-3)[GlcNAc(b1-3)Gal(b1-4)GlcNAc(b1-3)Gal(b1-4)GlcNAc(b1-3)Gal(b1-4)GlcNAc(b1-2)Man(a1-6)]Man(b1-4)GlcNAc(b1-4)GlcNAc
# Method in brief: as §1
# [11] = target: GlcNAc(b1-3)Gal(b1-4)GlcNAc(b1-3)Gal(b1-4)GlcNAc(b1-3)Gal(b1-4)GlcNAc(b1-2)Man(a1-3)[GlcNAc(b1-3)Gal(b1-4)GlcNAc(b1-3)Gal(b1-4)GlcNAc(b1-3)Gal(b1-4)GlcNAc(b1-2)Man(a1-6)]Man(b1-4)GlcNAc(b1-4)[Fuc(a1-6)]GlcNAc
# Method in brief: as §1
# [12] = target: GlcNAc(b1-3)Gal(b1-4)GlcNAc(b1-3)Gal(b1-4)GlcNAc(b1-3)Gal(b1-4)GlcNAc(b1-2)[GlcNAc(b1-3)Gal(b1-4)GlcNAc(b1-3)Gal(b1-4)GlcNAc(b1-3)Gal(b1-4)GlcNAc(b1-6)]Man(a1-6)[GlcNAc(b1-3)Gal(b1-4)GlcNAc(b1-3)Gal(b1-4)GlcNAc(b1-3)Gal(b1-4)GlcNAc(b1-2)Man(a1-3)]Man(b1-4)GlcNAc(b1-4)[Fuc(a1-6)]GlcNAc
# Method in brief: as §1
# [13] = target: GlcNAc(b1-3)Gal(b1-4)GlcNAc(b1-3)Gal(b1-4)GlcNAc(b1-3)Gal(b1-4)GlcNAc(b1-3)Gal(b1-4)GlcNAc(b1-2)Man(a1-3)[GlcNAc(b1-3)Gal(b1-4)GlcNAc(b1-3)Gal(b1-4)GlcNAc(b1-3)Gal(b1-4)GlcNAc(b1-3)Gal(b1-4)GlcNAc(b1-2)Man(a1-6)]Man(b1-4)GlcNAc(b1-4)GlcNAc
# Method in brief: as §1
# [14] = target: GlcNAc(b1-3)Gal(b1-4)GlcNAc(b1-3)Gal(b1-4)GlcNAc(b1-3)Gal(b1-4)GlcNAc(b1-3)Gal(b1-4)GlcNAc(b1-2)Man(a1-3)[GlcNAc(b1-3)Gal(b1-4)GlcNAc(b1-3)Gal(b1-4)GlcNAc(b1-3)Gal(b1-4)GlcNAc(b1-3)Gal(b1-4)GlcNAc(b1-2)Man(a1-6)]Man(b1-4)GlcNAc(b1-4)[Fuc(a1-6)]GlcNAc
# Method in brief: as §1
# [15] = target: GlcNAc(b1-3)Gal(b1-4)GlcNAc(b1-3)Gal(b1-4)GlcNAc(b1-3)Gal(b1-4)GlcNAc(b1-3)Gal(b1-4)GlcNAc(b1-2)[GlcNAc(b1-3)Gal(b1-4)GlcNAc(b1-3)Gal(b1-4)GlcNAc(b1-3)Gal(b1-4)GlcNAc(b1-3)Gal(b1-4)GlcNAc(b1-6)]Man(a1-6)[GlcNAc(b1-3)Gal(b1-4)GlcNAc(b1-3)Gal(b1-4)GlcNAc(b1-3)Gal(b1-4)GlcNAc(b1-3)Gal(b1-4)GlcNAc(b1-2)Man(a1-3)]Man(b1-4)GlcNAc(b1-4)[Fuc(a1-6)]GlcNAc
# Method in brief: as §1
# [16] = target: GlcNAc(b1-3)Gal(b1-4)GlcNAc(b1-3)Gal(b1-4)GlcNAc(b1-3)GalNAc
# Method in brief: as §1
# [17] = target: GlcNAc(b1-3)Gal(b1-4)GlcNAc(b1-3)GalNAc
# Method in brief: as §1
# [18] = target: GlcNAc(b1-3)Gal(b1-4)GlcNAc(b1-3)[GlcNAc(b1-3)Gal(b1-4)GlcNAc(b1-3)]GalNAc
# Method in brief: as §1
# [19] = target: GlcNAc(b1-3)Gal(b1-4)GlcNAc(b1-6)[Gal(b1-3)]GalNAc
# Method in brief: as §1
# [20] = target: GlcNAc(b1-3)Gal(b1-4)GlcNAc(b1-6)[GlcNAc(b1-3)Gal(b1-3)]GalNAc
# Method in brief: as §1
# [21] = target: GlcNAc(b1-3)Gal(b1-4)GlcNAc(b1-6)[GlcNAc(b1-3)]Gal(b1-4)GlcNAc
# Method in brief: as §1
# [22] = target: GlcNAc(b1-3)GalNAc
# Method in brief: as §1
# [23] = target: GlcNAc(b1-3)Man
# Method in brief: as §1
# [24] = target: GlcNAc(b1-3)[GlcNAc(b1-4)][GlcNAc(b1-6)]GlcNAc
# Method in brief: as §1
# [25] = target: GlcNAc(b1-3)[GlcNAc(b1-6)]Gal(b1-4)GlcNAc
# Method in brief: as §1
# [26] = target: GlcNAc(b1-3)[GlcNAc(b1-6)]GalNAc
# Method in brief: as §1
# [27] = target: GlcNAc(b1-4)Gal(b1-4)GlcNAc
# Method in brief: as §1
# [28] = target: GlcNAc(b1-4)GlcNAc
# Method in brief: as §1
# [29] = target: GlcNAc(b1-4)GlcNAc(b1-4)GlcNAc
# Method in brief: as §1
# [30] = target: GlcNAc(b1-4)GlcNAc(b1-4)GlcNAc(b1-4)GlcNAc(b1-4)GlcNAc
# Method in brief: as §1
# [31] = target: GlcNAc(b1-4)GlcNAc(b1-4)GlcNAc(b1-4)GlcNAc(b1-4)GlcNAc(b1-4)GlcNAc
# Method in brief: as §1
# [32] = target: GlcNAc(b1-4)[GlcNAc(b1-6)]GalNAc
# Method in brief: as §1
# [33] = target: GlcNAc(b1-6)Gal(b1-4)GlcNAc
# Method in brief: as §1
# [34] = target: GlcNAc(b1-6)GalNAc
# Method in brief: as §1
# [35] = target: GlcNAc6S(b1-3)Gal(b1-4)GlcNAc
# Method in brief: as §1
# [36] = target: Kdn(a2-3)Gal(b1-3)GalNAc
# Method in brief: as §1
# [37] = target: Kdn(a2-3)Gal(b1-3)GlcNAc
# Method in brief: as §1
binder,measurement,setting,value
B1,glycan array binding signal (z-score),[1],-0.407
same,glycan array binding signal (z-score),[2],-0.463
same,glycan array binding signal (z-score),[3],-0.186
same,glycan array binding signal (z-score),[4],-0.292
same,glycan array binding signal (z-score),[5],-0.368
same,glycan array binding signal (z-score),[6],-0.591
same,glycan array binding signal (z-score),[7],-0.223
same,glycan array binding signal (z-score),[8],-0.33
same,glycan array binding signal (z-score),[9],1.18
same,glycan array binding signal (z-score),[10],-0.514
same,glycan array binding signal (z-score),[11],-0.32
same,glycan array binding signal (z-score),[12],-0.388
same,glycan array binding signal (z-score),[13],-0.29
same,glycan array binding signal (z-score),[14],0.249
same,glycan array binding signal (z-score),[15],-0.439
same,glycan array binding signal (z-score),[16],-0.584
same,glycan array binding signal (z-score),[17],-0.538
same,glycan array binding signal (z-score),[18],-0.58
same,glycan array binding signal (z-score),[19],-0.398
same,glycan array binding signal (z-score),[20],-0.43
same,glycan array binding signal (z-score),[21],-0.647
same,glycan array binding signal (z-score),[22],-0.509
same,glycan array binding signal (z-score),[23],-0.616
same,glycan array binding signal (z-score),[24],-0.452
same,glycan array binding signal (z-score),[25],-0.6
same,glycan array binding signal (z-score),[26],-0.541
same,glycan array binding signal (z-score),[27],-0.6
same,glycan array binding signal (z-score),[28],-0.314
same,glycan array binding signal (z-score),[29],-0.598
same,glycan array binding signal (z-score),[30],-0.553
same,glycan array binding signal (z-score),[31],-0.601
same,glycan array binding signal (z-score),[32],-0.347
same,glycan array binding signal (z-score),[33],1.38
same,glycan array binding signal (z-score),[34],0.28
same,glycan array binding signal (z-score),[35],-0.184
same,glycan array binding signal (z-score),[36],-0.52
same,glycan array binding signal (z-score),[37],-0.571
